Laboratory results taken from PMC4336329 (PLoS ONE, 2015).
Out of some 310,000 compounds screened, about 14,000 (4.5%) showed an effect of 50% or more. Effects have a minus sign here. This is one part of the list.

Molecular target: human ether-à-go-go-related gene (hERG) potassium channel (human, UniProt Q12809)
Assay: primary screen, population patch clamp on CHO cells stably expressing hERG
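Also: peak tail current of the secondary pulse compared with the same well before compound.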

Chain of human ether-à-go-go-related gene (hERG) potassium channel (Q12809 whole entry, looked up): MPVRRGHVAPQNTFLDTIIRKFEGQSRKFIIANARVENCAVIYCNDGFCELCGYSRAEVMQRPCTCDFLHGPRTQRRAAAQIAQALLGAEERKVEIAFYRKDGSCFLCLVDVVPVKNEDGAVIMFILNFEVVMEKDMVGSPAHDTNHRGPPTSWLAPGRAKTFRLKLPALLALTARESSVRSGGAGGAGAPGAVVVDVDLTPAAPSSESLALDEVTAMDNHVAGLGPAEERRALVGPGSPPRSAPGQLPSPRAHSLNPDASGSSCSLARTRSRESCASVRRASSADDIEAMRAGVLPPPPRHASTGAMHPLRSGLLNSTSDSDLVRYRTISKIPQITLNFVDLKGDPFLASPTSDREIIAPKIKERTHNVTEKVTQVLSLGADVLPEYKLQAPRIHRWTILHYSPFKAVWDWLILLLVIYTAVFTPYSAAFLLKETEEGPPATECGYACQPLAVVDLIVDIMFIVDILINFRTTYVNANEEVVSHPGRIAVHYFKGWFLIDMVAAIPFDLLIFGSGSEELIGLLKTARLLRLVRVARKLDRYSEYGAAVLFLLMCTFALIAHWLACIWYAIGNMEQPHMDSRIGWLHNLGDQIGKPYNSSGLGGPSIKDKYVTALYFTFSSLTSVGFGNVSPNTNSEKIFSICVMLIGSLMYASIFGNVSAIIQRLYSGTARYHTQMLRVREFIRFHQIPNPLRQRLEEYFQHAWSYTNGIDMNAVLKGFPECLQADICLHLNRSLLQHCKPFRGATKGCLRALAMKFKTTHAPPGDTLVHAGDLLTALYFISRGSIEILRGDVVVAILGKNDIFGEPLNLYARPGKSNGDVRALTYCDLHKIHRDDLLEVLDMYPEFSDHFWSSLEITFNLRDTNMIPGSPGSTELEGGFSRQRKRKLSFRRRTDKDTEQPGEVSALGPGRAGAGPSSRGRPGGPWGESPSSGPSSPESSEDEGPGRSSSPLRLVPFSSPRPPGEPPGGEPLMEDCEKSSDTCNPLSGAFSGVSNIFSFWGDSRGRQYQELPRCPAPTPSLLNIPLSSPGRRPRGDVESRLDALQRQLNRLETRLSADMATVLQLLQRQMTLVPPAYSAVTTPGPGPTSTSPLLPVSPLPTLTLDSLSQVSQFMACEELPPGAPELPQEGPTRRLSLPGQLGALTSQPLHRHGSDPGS

Compound	hERG current change (%, negative = inhibition) at 10uM [%]
CC(C)(C)c1cnnn1-c1ccc(NC(=O)c2ccc(Br)o2)cc1	3.78
O=C1c2ccccc2C(Nc2ccc3c(c2)OCO3)N1Cc1ccco1 (stereo not drawn)	-23.5
COc1ccc(C(=O)NCC(C)(C)N2CCOCC2)cc1S(=O)(=O)N1CCCC1	-8.82
COc1cc(CNc2nc(C)c([N+](=O)[O-])c(C)c2C#N)cc(OC)c1OC	12.8
CC(=O)NC(CC(=O)OC(C)C(=O)Nc1ncc(Cl)cc1Cl)c1ccccc1 (stereo not drawn)	-7.77
O=C(NCc1cccnc1)c1cc(Cl)ccc1[N+](=O)[O-]	14.1
O=C(OCc1ccc(Cl)cc1Cl)c1cccnc1Cl	-6.71
COc1ccc(NC(=O)CN2C(=O)NC(C)(C3CC3)C2=O)c(OC)c1 (stereo not drawn)	-17.9
Cc1ccc(OCCNC(=O)C2CC(=O)N(c3ccc(C)cc3)C2)cc1 (stereo not drawn)	-4.5
COc1ccccc1Nc1nc2ccccc2n2cnnc12	6.29
Cc1ccc(Nc2cc(C)nc3ccc(C)cc23)cc1	-37.9
Cc1cc(N2C(=O)C3CCCN3C2c2cccc(Cl)c2)no1 (stereo not drawn)	7.08
Cc1onc(-c2c(F)cccc2Cl)c1C(=O)NCc1ccc(F)cc1	-4.75
COc1ccc(CCNC(=O)c2ccc(Cl)cc2)cc1	14.7
CC(=O)c1ccc(OC(C)C)c(CSC(=N)N)c1.Cl	-8.72
COc1ccc2c(c1)C(C1C(=O)CCCC1=O)c1ccccc1O2 (stereo not drawn)	-1.12
CCN(c1ccccc1)S(=O)(=O)c1ccc(C(=O)Nc2ccccn2)cc1	-8.37
COc1ccccc1C(=O)NCCC(=O)NC1CCCCC1C (stereo not drawn)	-3.32
Cn1cc(SCC(=O)Nc2nc3ccccc3s2)c2ccccc21	-5.6

Compound	hERG current change (%, negative = inhibition) at 10uM [%]
COC(=O)c1ccc(NC(=O)CCC(=O)c2ccc(F)cc2)cc1	25.8
O=S(=O)(c1ccccc1)N1CCN(S(=O)(=O)N2CCCCC2)CC1	-4.6
CCOc1ccc(Cc2nc(C)c(CC(=O)N3CCCCC3)c(=O)[nH]2)cc1	-10.9
O=c1[nH]c(C(F)(F)F)nc2c1nnn2Cc1ccccc1F	15.3
CC1(C)CC(=O)C(CC(=O)NC(=O)NCc2ccccc2)=C(O)C1	-5.91
COC(=O)c1cc(NC(=O)c2cc(C)oc2C)cc(C(=O)OC)c1	-4.3
Fc1cccc(CN2CCN(Cc3nc(CCc4ccccc4)no3)CC2)c1	-4.22
C=CCNC(=O)COC(=O)c1cccnc1Nc1ccccc1F	1.79
Cc1cc(C(=O)CSc2nc3ccccc3c(=O)[nH]2)c(C)n1CC1CCCO1 (stereo not drawn)	-0.542
c1ccc2c(c1)[nH]c1nc3nncn3nc12	8.31
O=C(OCc1nnc(-c2ccccc2)o1)c1ccc(Cl)cc1	1.7
CC(C)c1cc(C(=O)N/N=C/C=C/c2ccccc2)n[nH]1	10.5
CC(C#N)N1CCN(S(=O)(=O)c2ccc3c(c2)CCC3)CC1 (stereo not drawn)	17.5
Cc1ccc(-c2nn(CCC#N)cc2C(=O)O)cc1C	11.3
COc1ccccc1C1C2C(=O)N(c3ccccc3)C(=O)C2ON1c1ccccc1 (stereo not drawn)	2.16
O=C1CC(c2cccnc2)=NN1c1ccc(Cl)cc1Cl	12.1
CCc1cc(C(=O)N2CCCC(Nc3ccc(F)c(F)c3)C2)n(C)n1 (stereo not drawn)	-5.67
COc1ccc(/C=C(\C#N)C(=O)NCC(c2ccc(F)cc2)N2CCOCC2)cc1 (stereo not drawn)	-10.2
COc1ccc(/C=C/CN2CCCC(C(=O)c3cc(F)ccc3F)C2)cc1 (stereo not drawn)	-76.4

Compound	hERG current change (%, negative = inhibition) at 10uM [%]
COc1cccc2cc(C(=O)Nc3ccccc3C)/c(=N/O)oc12	8.46
N#C/C(=C/c1cccc([N+](=O)[O-])c1)C(=O)Nc1ccccc1O	14.6
Cc1cc(C)c(NC(=O)C2CCN(C(=O)c3ccco3)CC2)c(C)c1	19.9
CCOC(=O)Cc1csc(N/N=C/c2ccc(C(F)(F)F)cc2)n1	9.58
O=C(NNC(=S)NCCCN1CCOCC1)c1ccncc1	35.2
CCc1ccc(C(=O)C(C)OC(=O)Cc2n[nH]c(=O)c3ccccc23)cc1 (stereo not drawn)	-24
CCc1c(C#N)c(SCCC(=O)Nc2ccc(OC)cc2)nc2c1C(=O)CC(C)(C)C2	-1.28
O=C(NCC(c1cccnc1)N1CCOCC1)NC1CCCCC1 (stereo not drawn)	19.7
CC(=O)N1CCN(CCN=Cc2c(O)n(-c3ccc(F)cc3)c(=S)[nH]c2=O)CC1	22.1
CC(C)(C)NCC(O)COc1ccccc1C1CCCC1.O=S(=O)(O)O (stereo not drawn)	-28.5
Fc1ccc(Oc2ccnc(Cl)n2)c(Cl)c1	9.03
Cc1ccc(C(=O)N2CCN(c3ccc(NC(=O)c4ccc5c(c4)OCCO5)cc3)CC2)cc1	-19
N#CCCn1cc(/C=C(\C#N)c2nc3ccccc3s2)c(-c2ccc(F)cc2)n1	14
CCOc1ccc(NC(=S)NNC(=O)c2cc(Br)ccc2Cl)cc1	-7.06
CN1CCN(S(=O)(=O)c2ccccc2)CC1	15.6
CCC(NC(=O)c1ccccc1NC(=O)c1ccco1)C(=O)NNC(=O)c1ccc(OC)cc1 (stereo not drawn)	10.3
COc1ccc(CCNC(=O)COc2cc(C)cc3oc(=O)cc(C)c23)cc1	8.56
CCOc1cc(/C=N/NC(=O)CSc2nncn2C)ccc1OC(=O)c1ccc(Cl)cc1	-1.9
O=C(CSc1ccccc1C(=O)O)c1ccccc1	13.8
